Over roughly 110,000 compounds, “z-score” has its median near -0.1; the highest 2% begin near 2. The list shows a part of the results. Activity calls are given as the source filed them.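 Rule for the calls: active = z-score in the third read window above 3 or below -3; inactive = the rest.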

The target of the experiment is Metabotropic glutamate receptor 8 (Rattus norvegicus) (UniProt P70579). Briefly: rat mGluR8 modulators via GIRK flux, primary screen, cell-based, thallium flux, HTS (AID 488969). To be noted: HEK293 rat mGluR8, GIRK (G protein-gated inwardly rectifying potassium channel) thallium flux, FluoZin2; at 10 µM; stronger effect = higher value.
UniProt P70579, sequence (P70579 whole entry, looked up): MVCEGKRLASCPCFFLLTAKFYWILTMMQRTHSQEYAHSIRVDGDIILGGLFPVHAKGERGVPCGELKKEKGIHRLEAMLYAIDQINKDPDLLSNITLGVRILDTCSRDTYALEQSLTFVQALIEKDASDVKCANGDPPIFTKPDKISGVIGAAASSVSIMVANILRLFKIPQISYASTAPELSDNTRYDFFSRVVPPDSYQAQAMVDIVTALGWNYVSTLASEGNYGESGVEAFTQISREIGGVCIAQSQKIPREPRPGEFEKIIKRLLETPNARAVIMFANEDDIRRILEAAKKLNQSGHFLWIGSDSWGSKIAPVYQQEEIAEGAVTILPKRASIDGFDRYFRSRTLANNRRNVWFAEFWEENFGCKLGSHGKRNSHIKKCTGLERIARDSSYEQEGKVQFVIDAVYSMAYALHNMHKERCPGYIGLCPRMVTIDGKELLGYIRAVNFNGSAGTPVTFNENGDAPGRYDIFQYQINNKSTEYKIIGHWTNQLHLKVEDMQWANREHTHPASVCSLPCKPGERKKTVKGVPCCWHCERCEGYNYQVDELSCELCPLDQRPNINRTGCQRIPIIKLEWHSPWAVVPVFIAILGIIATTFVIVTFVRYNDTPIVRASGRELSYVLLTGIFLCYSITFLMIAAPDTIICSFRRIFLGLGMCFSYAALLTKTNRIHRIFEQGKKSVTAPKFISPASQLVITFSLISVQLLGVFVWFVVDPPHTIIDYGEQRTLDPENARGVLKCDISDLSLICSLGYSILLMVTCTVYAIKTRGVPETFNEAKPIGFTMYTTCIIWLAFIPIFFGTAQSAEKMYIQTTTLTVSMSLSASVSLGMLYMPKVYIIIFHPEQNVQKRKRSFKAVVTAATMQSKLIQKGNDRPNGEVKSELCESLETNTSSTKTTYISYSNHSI
With `Cc1nc2cc(-c3ccc(Cl)cc3)nn2c(C)c1CCC(=O)N1CCC2(CC1)OCCO2`, the z-score was 0.0371.

Compound `CC1=CC(=C2C(=O)NC(=S)NC2=O)C=C(C(F)(F)F)N1C` gave a z-score of -0.0498.

`CCN(CC)CCCNC(=O)c1c(O)c2ccccc2n(Cc2ccccc2)c1=O` displayed a z-score of 0.385.

In turn, `O=[N+]([O-])c1ccc(C2[C@H]3C(c4ccccc4)=NC4(CCCC4)N23)cc1` (stereo partly specified) had a z-score of -0.693.

The compound `Cn1nc(N)c2c1N=P(N1CCOCC1)(N1CCOCC1)N=C2c1ccccc1` had a z-score of 0.605.

The compound `CCOC(=O)c1nc2ccccc2c(=O)n1-c1ccc(C)cc1` yielded a z-score of -0.15.

Regarding `CCOCCN1CCC(OC(C)=O)C(C)C1` (stereo unspecified), the z-score was found to be 0.256.

In turn, `COc1ccc(C(=O)C(C)(C)NO)cc1` showed a z-score of 0.0653.

`COc1cc2c(C(=O)N3CCN(C)CC3)c(C)n(C)c2cc1Br` showed a z-score of 0.0254.

For the compound `Cc1nc2ccc(Cl)cc2c(-c2ccccc2)c1C(=O)O`, the z-score was -0.396.

`O=[N+]([O-])c1ccc(N2CCNCC2)cc1NCC1CCCO1` (stereo unspecified): the z-score worked out at 0.0282.

For the compound `COCCn1c(-c2ccccc2)cc(C(=O)O)c1C`, the z-score was found to be 2.06.

Take `N=C1c2ccccc2CN1CC(=O)c1ccccc1`: the z-score was -0.0986.

The compound `Nc1c(C(=O)NCc2ccco2)c2nc3ccccc3nc2n1CCN1CCOCC1` returned a z-score of -0.573.

As for `CC1(C)C(c2ccccc2)=NC(c2cccnc2)N1O` (stereo unspecified), the z-score came out at 0.423.

In the case of `O=C1CC(c2ccccc2)CC(O)=C1C=NCCN1CCN(C(=O)Cc2ccccc2)CC1` (stereo unspecified), the z-score was -0.192.

In turn, `CCC(=O)OC1(c2cccc(C)c2)CC(C)N(C)CC1C` (stereo unspecified) came in with a z-score of 0.852.

As for `Cn1c(C(=O)O)c(CC(=O)N2CCN(Cc3ccccc3)CC2)c2ccccc21`, the z-score amounted to 0.684.

As for `CCC1(CC)C(=O)N(Cc2ccccc2)C(=O)N(Cc2ccccc2)C1=O`, the z-score worked out at 0.0964.

On to `CCC(C)c1ccc(N2C(=O)NC(=O)/C(=C/c3cccn3CCOc3ccc(C)cc3)C2=O)cc1` (stereo unspecified), for which the z-score came to 0.272.

In turn, `O=C1CSC2(CN3CCC2CC3)N1` (stereo unspecified) registered a z-score of -0.155.

Compound `Cc1ccc(S(=O)(=O)N2CC3CC(C2)c2cccc(=O)n2C3)cc1` (stereo unspecified) displayed a z-score of -0.165.

`O=S(=O)(c1ccccc1)N1CCCCC1c1cccnc1` (stereo unspecified): the z-score came out at 0.284.

On to `CN1c2ccc([N+](=O)[O-])cc2CC2(C(=O)NC(=O)N(c3ccc(Br)cc3)C2=O)C1c1ccccc1` (stereo unspecified), for which the z-score is -1.17.

Regarding `Fc1ccc(NC2=NCCS2)cc1Cl`, the z-score was active: 4.82.

The compound `C=CCn1c(O)c(C(CC)=NCc2cc(OC)cc(OC)c2)c(=O)[nH]c1=O` came in with a z-score of -1.69.

Take `CCc1ccc(-n2c(O)c(/C=N/N3CCCCC3c3cccnc3)c(=O)[nH]c2=O)cc1` (stereo unspecified): the z-score was -0.118.

`Cc1cccc2c1=NC(=O)/C(=C/c1c(O)[nH]c(=O)[nH]c1=O)C=2` showed a z-score of -0.874.

Compound `CCCC1COC(Cn2cncn2)(c2ccc(Cl)cc2Cl)O1` (stereo unspecified) showed a z-score of -0.364.

`COC(=O)C(O)(c1cn(C)c2ccccc12)C(F)(F)F` (stereo unspecified) gave a z-score of -0.105.

Compound `O=C(c1ccco1)c1cn(Cc2ccccc2Cl)c2ccccc12` returned a z-score of -0.465.

For `CN1CCC(N(C)c2nc(-c3ccc([N+](=O)[O-])cc3)nc3ccccc23)CC1`, the z-score was determined as 0.562.

Take `CCCCOc1ccc(CN2CCN(CC)CC2)cc1`: the z-score turned out to be 0.446.

Turning to `CC1(C)CN=C(Nc2ccc(F)c(F)c2)S1`, the z-score is -0.117.

`CC(C)Sc1nnc([C@@H](N)Cc2ccccc2)o1` registered a z-score of -0.379.

Take `O=C1C2CCCN2C(c2cccnc2)N1c1ccc(Cl)c(Cl)c1` (stereo unspecified): the z-score was -0.366.

Turning to `CN(C)CC#CCOCCOCCC#N`, the z-score amounted to 0.0894.

The compound `O=[N+]([O-])c1ccc(N2CCNCC2)cc1Sc1ccccn1` displayed a z-score of 0.0114.

In turn, `CC1(C)C(C(=O)NCc2ccco2)C1(C)C` returned a z-score of -0.104.

`Clc1cnc(Oc2ccc(Oc3ncc(Cl)cc3Cl)cc2)c(Cl)c1` came in with a z-score of 0.509.

Compound `CCOC(=O)c1c(/N=C/c2c(O)n(-c3ccccc3F)c(=S)[nH]c2=O)sc2c1CCCC2` displayed a z-score of -0.0576.

The compound `CCCCn1c(O)c(C(CC)=NCc2ccc3c(c2)OCO3)c(=O)[nH]c1=O` showed a z-score of -0.68.

`C=CCn1c(O)c(C(CC)=NC(C)c2ccccc2)c(=O)[nH]c1=O` (stereo unspecified) displayed a z-score of -0.246.

On to `COc1ccc(-c2nc(CS(=O)CC(=O)N3CCC4(CC3)OCCO4)c(C)o2)cc1` (stereo unspecified), for which the z-score was -0.23.

For the compound `COc1ccc(CN2CCN(c3ccccc3F)CC2)cc1O`, the z-score is -0.179.

`O=[N+]([O-])c1ccc(N2CCNCC2)cc1NC1CC1` registered a z-score of -0.0698.

The compound `O=C(NC(Oc1ccccc1)C(Cl)(Cl)Cl)c1ccccc1` (stereo unspecified) yielded a z-score of -0.149.

`CC(C)CCn1c(=O)c(C(=O)Nc2ccccc2S(N)(=O)=O)c(O)c2ccccc21` had a z-score of 2.

Compound `C/C(=N\N1CCCCC1c1cccnc1)c1c(O)n(C2CCCCC2)c(=S)[nH]c1=O` (stereo unspecified) returned a z-score of 0.874.

Regarding `Cc1cc(C(=O)N2CCC3(CC2)OCCO3)cs1`, the z-score was 0.652.

The compound `O=C(COc1ccc(Cl)cc1Cl)N1CCN(C/C=C/c2ccccc2)CC1` displayed a z-score of 0.12.

In turn, `COc1ccc(OC)c(CC(=O)O)c1` came in with a z-score of 0.215.

For `Fc1ccc(CCNCc2ccc(Br)cc2)cc1`, the z-score is 0.723.

In turn, `CCOC(=O)C(=CNc1ccc(C(O)(C(=O)OCC)C(F)(F)F)cc1C)C(=O)OCC` (stereo unspecified) displayed a z-score of -0.709.

Take `O=C(c1ccccc1F)c1cn(CC(=O)N2CCOCC2)c2ccccc12`: the z-score is -0.273.

Regarding `CC1CN=C(NCc2ccncc2)S1` (stereo unspecified), the z-score is 0.456.

Source of the values: PubChem BioAssay AID488969 (Vanderbilt High Throughput Screening Facility, 2010).
